Assay results reported in patent US20250333542A1 (Hoffmann-La Roche, published 2025).

B1: P1AF9473 (anti-FAP 4B9 IgG-IFNG, C-terminus AKTGSRSRP) (other)
heavy: EVQLLESGGGLVQPGGSLRLSCAASGFTFSSYAMSWVRQAPGKGLEWVSAIIGSGASTYYADSVKGRFTISRDNSKNTLYLQMNSLRAEDTAVYYCAKGWFGGFNYWGQGTLVTVSSASTKGPSVFPLAPSSKSTSGGTAALGCLVKDYFPEPVTVSWNSGALTSGVHTFPAVLQSSGLYSLSSVVTVPSSSLGTQTYICNVNHKPSNTKVDKKV[human IgG1 Fc with changes skipped]GGGGSGGGGSGGGGSQDPYVKEAENLKKYFNAGHSDVADNGTLFLGILKNWKEESDRKIMQSQIVSFYFKLFKNFKDDQSIQKSVETIKEDMNVKFFNSNKKKRDDFEKLTNYSVTDLNVQRKAIHELIQVMAELSPAAKTGSRSRP
light: EIVLTQSPGTLSLSPGERATLSCRASQSVTSSYLAWYQQKPGQAPRLLINVGSRRATGIPDRFSGSGSGTDFTLTISRLEPEDFAVYYCQQGIMLPPTFGQGTKVEIKRTVAAPSVFIFPPSDEQLKSGTASVVCLLNNFYPREAKVQWKVDNALQSGNSQESVTEQDSKDSTYSLSSTLTLSKADYEKHKVYACEVTHQGLSSPVTKSFNRGEC
notes: Antibody-cytokine fusion, IgG1 P329G LALA, (G4S)3 linker; S in positions 1 and 3 of KRKR
B2: P1AF9474 (anti-FAP 4B9 IgG-IFNG, C-terminus AKTGKSKSP) (other)
heavy: EVQLLESGGGLVQPGGSLRLSCAASGFTFSSYAMSWVRQAPGKGLEWVSAIIGSGASTYYADSVKGRFTISRDNSKNTLYLQMNSLRAEDTAVYYCAKGWFGGFNYWGQGTLVTVSSASTKGPSVFPLAPSSKSTSGGTAALGCLVKDYFPEPVTVSWNSGALTSGVHTFPAVLQSSGLYSLSSVVTVPSSSLGTQTYICNVNHKPSNTKVDKKV[human IgG1 Fc with changes skipped]GGGGSGGGGSGGGGSQDPYVKEAENLKKYFNAGHSDVADNGTLFLGILKNWKEESDRKIMQSQIVSFYFKLFKNFKDDQSIQKSVETIKEDMNVKFFNSNKKKRDDFEKLTNYSVTDLNVQRKAIHELIQVMAELSPAAKTGKSKSP
light: B1 light
notes: Antibody-cytokine fusion, IgG1 P329G LALA, (G4S)3 linker; S in positions 2 and 4 of KRKR
B3: P1AF9475 (anti-FAP 4B9 IgG-IFNG, C-terminus AKTGPRKRP) (other)
heavy: EVQLLESGGGLVQPGGSLRLSCAASGFTFSSYAMSWVRQAPGKGLEWVSAIIGSGASTYYADSVKGRFTISRDNSKNTLYLQMNSLRAEDTAVYYCAKGWFGGFNYWGQGTLVTVSSASTKGPSVFPLAPSSKSTSGGTAALGCLVKDYFPEPVTVSWNSGALTSGVHTFPAVLQSSGLYSLSSVVTVPSSSLGTQTYICNVNHKPSNTKVDKKV[human IgG1 Fc with changes skipped]GGGGSGGGGSGGGGSQDPYVKEAENLKKYFNAGHSDVADNGTLFLGILKNWKEESDRKIMQSQIVSFYFKLFKNFKDDQSIQKSVETIKEDMNVKFFNSNKKKRDDFEKLTNYSVTDLNVQRKAIHELIQVMAELSPAAKTGPRKRP
light: B1 light
notes: Antibody-cytokine fusion, IgG1 P329G LALA, (G4S)3 linker; P in position 1 of KRKR
B4: P1AF9476 (anti-FAP 4B9 IgG-IFNG, C-terminus AKTGKPKRP) (other)
heavy: EVQLLESGGGLVQPGGSLRLSCAASGFTFSSYAMSWVRQAPGKGLEWVSAIIGSGASTYYADSVKGRFTISRDNSKNTLYLQMNSLRAEDTAVYYCAKGWFGGFNYWGQGTLVTVSSASTKGPSVFPLAPSSKSTSGGTAALGCLVKDYFPEPVTVSWNSGALTSGVHTFPAVLQSSGLYSLSSVVTVPSSSLGTQTYICNVNHKPSNTKVDKKV[human IgG1 Fc with changes skipped]GGGGSGGGGSGGGGSQDPYVKEAENLKKYFNAGHSDVADNGTLFLGILKNWKEESDRKIMQSQIVSFYFKLFKNFKDDQSIQKSVETIKEDMNVKFFNSNKKKRDDFEKLTNYSVTDLNVQRKAIHELIQVMAELSPAAKTGKPKRP
light: B1 light
notes: Antibody-cytokine fusion, IgG1 P329G LALA, (G4S)3 linker; P in position 2 of KRKR
B5: P1AF9477 (anti-FAP 4B9 IgG-IFNG, C-terminus AKTGKRPRP) (other)
heavy: EVQLLESGGGLVQPGGSLRLSCAASGFTFSSYAMSWVRQAPGKGLEWVSAIIGSGASTYYADSVKGRFTISRDNSKNTLYLQMNSLRAEDTAVYYCAKGWFGGFNYWGQGTLVTVSSASTKGPSVFPLAPSSKSTSGGTAALGCLVKDYFPEPVTVSWNSGALTSGVHTFPAVLQSSGLYSLSSVVTVPSSSLGTQTYICNVNHKPSNTKVDKKV[human IgG1 Fc with changes skipped]GGGGSGGGGSGGGGSQDPYVKEAENLKKYFNAGHSDVADNGTLFLGILKNWKEESDRKIMQSQIVSFYFKLFKNFKDDQSIQKSVETIKEDMNVKFFNSNKKKRDDFEKLTNYSVTDLNVQRKAIHELIQVMAELSPAAKTGKRPRP
light: B1 light
notes: Antibody-cytokine fusion, IgG1 P329G LALA, (G4S)3 linker; P in position 3 of KRKR
B6: P1AF9478 (anti-FAP 4B9 IgG-IFNG, P in position 4 of KRKR) (other)
heavy: EVQLLESGGGLVQPGGSLRLSCAASGFTFSSYAMSWVRQAPGKGLEWVSAIIGSGASTYYADSVKGRFTISRDNSKNTLYLQMNSLRAEDTAVYYCAKGWFGGFNYWGQGTLVTVSSASTKGPSVFPLAPSSKSTSGGTAALGCLVKDYFPEPVTVSWNSGALTSGVHTFPAVLQSSGLYSLSSVVTVPSSSLGTQTYICNVNHKPSNTKVDKKV[human IgG1 Fc with changes skipped]GGGGSGGGGSGGGGSQDPYVKEAENLKKYFNAGHSDVADNGTLFLGILKNWKEESDRKIMQSQIVSFYFKLFKNFKDDQSIQKSVETIKEDMNVKFFNSNKKKRDDFEKLTNYSVTDLNVQRKAIHELIQVMAELSPAAKTGKRKPP
light: B1 light
notes: Antibody-cytokine fusion, IgG1 P329G LALA, (G4S)3 linker; also called KRKPP

target: T1, Fc (kih)-IFNGR1/2 heterodimer (P1AF8126) (UniProt P15260 18-245; P38484 28-247, limits assumed); assay: SPR, compound immobilised, Fc(kih)-IFNGR1/2 heterodimer as analyte; apparent affinity
T1 construct: Used as the soluble analyte in SPR; also called Fc (kih)-IFNGR1/R2 heterodimer; IFNGR1/R2; not shown: Fc (kih) chain
T1 sequence (looked up) 1: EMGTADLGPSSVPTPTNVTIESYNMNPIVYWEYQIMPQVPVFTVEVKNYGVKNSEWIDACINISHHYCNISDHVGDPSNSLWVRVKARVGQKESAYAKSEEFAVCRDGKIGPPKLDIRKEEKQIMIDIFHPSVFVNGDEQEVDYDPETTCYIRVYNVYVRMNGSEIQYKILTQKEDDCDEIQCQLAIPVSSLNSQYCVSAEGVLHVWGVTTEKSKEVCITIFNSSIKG
T1 sequence (looked up) 2: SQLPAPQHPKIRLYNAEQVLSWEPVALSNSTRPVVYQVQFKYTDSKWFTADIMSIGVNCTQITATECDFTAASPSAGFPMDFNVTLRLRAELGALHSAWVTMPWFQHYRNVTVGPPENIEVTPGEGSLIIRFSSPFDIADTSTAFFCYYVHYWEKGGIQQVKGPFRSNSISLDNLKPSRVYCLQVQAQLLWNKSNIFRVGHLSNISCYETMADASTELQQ
Procedure: (§1) The binding behaviour of IFNG variants towards IFNGR1 and IFNGR1/2 was assessed by surface plasmon resonance (SPR). SPR experiments were performed on a Biacore 8K device at 25° C. with HBS-EP as running buffer (0.01 M HEPES pH 7.4, 0.15 M NaCl, 3 mM EDTA, 0.005% Surfactant P20, Biacore, Freiburg/Germany). […] IFNG mutation series compounds were immobilised at a concentration of 25 nM, 80 s contact time and 10 μL/min. Immobilisation levels up to 450 resonance units (RU) were used. Subsequently, decreasing concentrations (800-3.13 nM) of Fc (kih)-IFNGR1 monomer or Fc (kih)-IFNGR1/2 heterodimer were injected as a second analyte with a flow rate of 30 μL/min over 120 seconds and dissociation was monitored for 500 s. Bulk refractive index differences were corrected for by subtracting the response obtained in a reference flow cell, where no protein was immobilised. The affinity constants were derived from the rate constants by fitting to a 1:1 Langmuir binding.
(§2) To measure binding affinities, compounds of the mutation series were immobilised in the flow cell. As a second analyte Fc (kih)-IFNGR1 monomer or Fc (kih)-IFNGR1/R2 heterodimer were passed through the flow cell and binding affinities (KD) were calculated based on observed association and dissociation constants. Already single point mutations reduced the apparent binding affinities towards the receptors compared to the compound with C-terminal KRKRP.

Row | Kd [nM] | Binder
1 | 793 | B1
2 | 864 | B2
3 | 320 | B3
4 | 456 | B4
5 | 312 | B5
6 | 284 | B6

target: T2, Fc (kih)-IFNGR1 monomer (P1AF7104) (UniProt P15260 18-245); assay: SPR, compound immobilised, Fc(kih)-IFNGR1 monomer as analyte; apparent affinity
T2 construct: Used as the soluble analyte in SPR; not shown: Fc (kih) part
T2 sequence (P15260 whole entry, species assumed, looked up): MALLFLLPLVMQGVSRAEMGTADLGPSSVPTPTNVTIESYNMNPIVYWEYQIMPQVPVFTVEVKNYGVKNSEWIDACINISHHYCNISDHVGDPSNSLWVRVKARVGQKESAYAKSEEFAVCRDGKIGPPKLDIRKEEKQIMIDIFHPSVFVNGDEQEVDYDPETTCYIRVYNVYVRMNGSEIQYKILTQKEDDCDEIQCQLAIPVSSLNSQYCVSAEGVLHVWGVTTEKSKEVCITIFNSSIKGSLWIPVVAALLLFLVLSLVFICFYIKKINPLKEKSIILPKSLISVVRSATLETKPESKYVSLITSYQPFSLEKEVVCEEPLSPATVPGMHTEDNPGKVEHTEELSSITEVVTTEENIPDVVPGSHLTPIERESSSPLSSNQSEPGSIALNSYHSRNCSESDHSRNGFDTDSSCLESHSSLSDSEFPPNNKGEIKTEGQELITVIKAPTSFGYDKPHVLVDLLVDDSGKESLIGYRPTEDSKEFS
Procedure: as §1, §2

Row | Kd [nM] | Binder
7 | 1100 | B1
8 | 4560 | B2
9 | 643 | B3
10 | 1020 | B4
11 | 539 | B5
12 | 564 | B6
